Data reported in PubChem BioAssay AID1508624 (National Center for Advancing Translational Sciences (NCATS), 2021).
The whole screen tested about 48,000 compounds, of which about 120 (0.25%) were called active. About 4% were inconclusive and are not listed. Calls come from the whole dose curve; as a rule, active = well fitted activation curve with a large enough effect; inconclusive = small, poorly fitted or top-dose-only effect, or another doubt; inactive = no such curve, though single readings can be large or run the other way. The list shows a part of the results.

Assay: Primary qHTS for Identification of Small Molecule Activators of Huntingtin-Antisense Promoter Activity; note: nearly all actives have a fitted effect of over 55% in size
Settings: HEK293 HTT-AS promoter firefly luciferase reporter, 24 h; series mostly up to 57.5 µM; activity change, positive = activation: at the top concentration
How it was run: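 HEK293 Fluc reporter, 2,500 cells/well, 24 h pre-culture; cpds up to 57.5 uM final, 24 h 37 degrees C; Dual-Glo, 10 min RT; normalized vehicle = 0%, zero RLU = -100%.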

Activity change, positive = activation, inactive:
CC(=O)N1CCc2c(sc3c2c(=O)n(CCc2ccccc2)c(=O)n3Cc2ccc(F)cc2)C1 -41.5%, Cc1ccccc1NC(=O)Cn1c(=O)n(CCCCCC(=O)NCc2ccc3c(c2)OCO3)c(=O)c2sccc21 -31.3%, Cc1c(Cl)cccc1NC(=O)CSc1nc(=O)n(CCN2CCOCC2)c2c1CCC2 -13.2%, CCOc1ccc(NC(=O)c2sc3nc(-c4ccc(OC)cc4)cn3c2C)cc1 8.96%, COc1ccc(-n2ccn(CC(=O)Nc3ccccc3C(F)(F)F)c(=O)c2=O)cc1OC 0.474%, COc1cc(NC(=O)C2CCCN(S(=O)(=O)c3cn(C)cn3)C2)cc(OC)c1 (stereo not drawn) -6.73%, O=C(COc1ccccc1)OCc1cc(=O)n2nc(-c3cccs3)sc2n1 9.22%, CC(C)OC(=O)OCOP(=O)(CO[C@H](C)Cn1cnc2c(N)ncnc21)OCOC(=O)OC(C)C, Cc1c(Cl)cccc1NC(=O)c1cc2nc(-c3ccc4c(c3)OCO4)cc(C(F)(F)F)n2n1 -5.7%, Cc1ccccc1NC(=O)c1ccc(N(Cc2ccccc2)S(C)(=O)=O)cc1 -46.6%, COc1ccc(CNC(=O)c2cnc3ccc(C)cn3c2=O)cc1 -1.27%, O=C(NCc1ccc2c(c1)CCN2C(=O)c1ccncc1)c1ccccc1F -16.7%, COC(=O)c1ccccc1NC(=O)CCS(=O)(=O)c1nc(-c2ccc3c(c2)OCO3)cc(C(F)(F)F)n1 -56.1%, COc1ccccc1CNc1ncnc2c1nnn2C -1.44%, CCOCCCn1c(=N)c(S(=O)(=O)c2ccc(Cl)cc2)cc2c(=O)n3cccc(C)c3nc21 -2.75%, COC(=O)c1c(-c2cccs2)csc1NC(=O)c1ccc(C(C)C)cc1 3.44%, Cc1ccc(NC(=O)CCS(=O)(=O)c2ccc3c(c2)oc(=O)n3C)c(Br)c1 -3.29%, COc1ccc(NC(=O)c2cc3c(C)nn(-c4ccccc4)c3s2)c(OC)c1 -9.42%, Cc1c(Cl)cccc1Nc1nn2c(=O)c3ccc(C(=O)N(C)Cc4ccccc4)cc3nc2s1 -23.3%, CCOc1cc(S(=O)(=O)NCCc2c(C)[nH]c3ccc(C)cc23)ccc1Br -28.1%, Cc1cc(C)cc(-n2c(SCC(=O)NC3CCCCC3)nc3c([nH]c4ccccc43)c2=O)c1 -7.35%, CC(=O)c1cccc(NS(=O)(=O)c2cccc(S(=O)(=O)c3ccc(Br)cc3)c2)c1 -53.9%, COc1ccc(N2CCN(C(=O)CSCc3ccc(C)cc3)CC2)cc1 -6.51%, COc1ccc(-c2nc(CSCC(=O)N3CCN(c4ccccc4)CC3)c(C)o2)cc1 -56.6%, O=c1[nH]c(SCc2c(F)cccc2Cl)nc2c1CCCC2 -21.4%, COCCNC(=O)c1[nH]c2cc(C)ccc2c1Sc1ccc(Cl)cc1 10%, O=C(Nc1cccc(-c2nc3ccccc3o2)c1)c1cccc2c(Cl)cccc12 -14.1%, CCOC(=O)c1ccc(NC(=O)CCc2nc3cccnc3n2Cc2cccs2)cc1 -20.6%, Cc1ccc(S(=O)(=O)c2cn(CC(=O)Nc3ccc(Cl)cc3)c3ccc(F)cc3c2=O)cc1C -8.2%, C[C@@]12CCC[C@H]1[C@@H]1CC[C@H]3C[C@@H](O)CC[C@]3(C)[C@H]1CC2 -4.87%, COc1cc(C2CC(=O)Nc3c2c(=O)n(C)c2ncnn32)cc(OC)c1OC (stereo not drawn) -2.98%, CCOC(=O)c1c(NC(=O)c2cc(CC)on2)sc(C(C)=O)c1C -9.78%, CC(=O)c1ccc(N2CCN(c3ccc4cc(S(=O)(=O)N5CCC(C)CC5)ccc4n3)CC2)cc1 -18.1%, CSc1ccc(CCNC(=O)c2c(C)oc3ncn(C)c(=O)c23)cc1 1.66%, COc1ccc(CCN2CCC(CNC(=O)c3cnn(-c4cccc(Cl)c4)c3C3CCN(C(=O)OC(C)(C)C)CC3)CC2)cc1 -27%, O=C(CN1c2ccccc2S(=O)(=O)c2ccccc21)Nc1cccc(C(F)(F)F)c1 -17.4%, Cc1cccc(Cn2c(Cc3ccccc3)nc3ccccc32)c1 -24.4%, COc1ccc(N2CCN(C(=O)C3CCN(c4nc5ccc(C)cc5[nH]4)CC3)CC2)cc1 -40.4%, O=C(NCc1ccc(F)cc1)c1ccc2oc(=O)n(Cc3ccccc3)c2c1 -18.2%, COc1ccccc1NC(=O)C(=O)NCC(c1cccnc1)N1CCc2ccccc2C1 (stereo not drawn) -8.89%, COc1cccc(CNC(=O)Cn2c(=O)oc3cc(S(=O)(=O)N4CCCCCC4)ccc32)c1 -24.3%, C[C@@H]1[C@H](C)CC[C@]2(C(=O)O)CC[C@]3(C)C(=CC[C@@H]4[C@@]5(C)CC[C@H](O)C(C)(C)[C@H]5CC[C@]43C)[C@@H]12 -18.7% [at 116 µM, percent change from vehicle, -100% = no light], CC(=O)Nc1nonc1-c1nnc(SCc2ccccc2)n1C -12.2%, COc1ccc(-n2nc(C(=O)Nc3cc(C)ccn3)c3c4ccccc4n(C)c3c2=O)cc1Cl -3.05%, CCc1ccc(NC(=O)Cn2c(=O)c3cc(Cl)ccc3n3nncc23)cc1 -1.63%, CCOc1ccc(-c2cc(C(=O)NCCc3ccc(OC)c(OC)c3)[nH]n2)cc1 -0.98%, CN1CC(=O)N(CC(=O)Nc2ccc(OC(F)(F)F)cc2)c2ccccc2C1=O -10.4%, O=c1c2oc3ccccc3c2n(Cc2cccc(F)c2)c(=O)n1Cc1ccc2c(c1)OCO2 -25.6%, Cc1ccccc1CNC(=O)C(=O)NCC(c1cccs1)S(=O)(=O)c1cccs1 (stereo not drawn) -35.6%, COC(=O)c1cccc(CN2C(=O)SC(Nc3ccc(C)cc3)C2=O)c1 (stereo not drawn) -9.43%, C=Cc1ccc(Cn2c(SCC(=O)N3CCN(c4ccc(F)cc4)CC3)nc3ccccc32)cc1 -14.3%, Cc1ccc(CNC(=O)CN2C(=O)CC(c3ccc(C)c(C)c3)=Nc3ccccc32)cc1 12.2%, COc1ccc(-c2nc(S(=O)(=O)c3ccc(C)cc3)c(N3CCCCC3)o2)cc1 -6.91%, CCCCOC(=O)c1ccc(Nc2ncnc3c2cnn3-c2cccc(C)c2)cc1 -7.74%, Cc1cccc(CN2CCC(CNc3ncnc4onc(-c5ccc(Cl)cc5)c34)CC2)c1 -21.7%, COc1ccc(NC(=O)C2CCCN(S(=O)(=O)c3cccc4nonc34)C2)cc1Cl (stereo not drawn) -11.1%, Cn1cnc([N+](=O)[O-])c1Sc1ncnc2nc[nH]c12, Clc1cccc(-n2cc(-c3ccccc3)c3c(NC4CCCC4)ncnc32)c1 -12.2%, COc1ccccc1NC(=O)CSc1nc2c(oc3ccccc32)c(=O)n1Cc1ccco1 -16.5%, Cc1ccc(-c2nnc3c4ccccc4c(C)nn23)cc1NC(=O)c1cccc(Br)c1 -0.688%, O=C(NCc1cccc(Cl)c1)NCc1noc2ccccc12 4.63%, CCCCN(CC)C(=O)CCCn1c(=O)c2cccn2c2ccccc21 -12.1%, COc1cccc(N2CCN(c3ncnc4c3c(-c3ccccc3)cn4-c3ccc(F)cc3)CC2)c1 -4.85%, CCOC(=O)c1cnc(N2CCN(c3ccc(OC)cc3)CC2)c2ccccc12 -11.3%, CCN1CCN(c2ncnc3c2cnn3-c2cc(Cl)ccc2C)CC1 -10.8%, CCOC(=O)c1c(S(=O)(=O)NCC(=O)N(C)Cc2ccccc2)c(C)n(C)c1C -16%, COc1ccccc1N1CCN(c2ncnc3c2c(-c2ccccc2)cn3-c2cccc(C)c2)CC1 -16.2%, CC1CCN(S(=O)(=O)c2csc(C(N)=O)c2)CC1 -18.7%, CCCOc1ccc(C2c3c(oc4ccc(F)cc4c3=O)C(=O)N2CCc2ccc(OC)cc2)cc1 (stereo not drawn) -5.89%, O=C(CSc1oc(-c2ccc(F)cc2)nc1S(=O)(=O)c1ccc(Br)cc1)NC1CCCCC1 -0.448%, CC(=O)Nc1nonc1-c1nnc(SCC(=O)Nc2ccc(C)c(Cl)c2)n1C -13.8%, COc1ccc(-c2cc(=O)c3c(O)cc(O[C@@H]4O[C@H](CO[C@@H]5O[C@@H](C)[C@H](O)[C@@H](O)[C@@H]5O)[C@@H](O)[C@H](O)[C@@H]4O)cc3o2)cc1O -50.9%, CCOc1ccc2c(c1)c(=O)c(S(=O)(=O)c1ccc(C)cc1)cn2Cc1ccccc1Cl -14.2%, O=C(Cn1nc(-c2ccc(Cl)cc2)ccc1=O)NCCc1ccccc1 -23.3%, CCOC(=O)CCc1c(C)nc2c(c(C)nn2-c2ccc(C)cc2)c1C -3.68%, O=C(C1CCC1)N1CCc2cc(S(=O)(=O)NCCc3ccccc3)ccc21 -28.1%, Cc1ccc(Cn2c(CCNC(=O)C(C)C)nc3ccccc32)cc1 -13.9%, COc1ccc(CNC(=O)CCNS(=O)(=O)c2ccc3c(c2)CCCC(=O)N3)cc1 -20%, Cc1ccc(Cl)cc1N(C)C(=O)C1CCCN(c2ncnc3onc(-c4ccc(F)cc4)c23)C1 (stereo not drawn) -34%, CCOc1ccccc1NC(=O)c1c(NC(=O)Cc2ccc(OC)cc2)sc2c1CCC2 12.9%, CCc1cccc(NC(=O)c2ccc3c(c2)c(C)c(C)n3Cc2ccc(F)cc2)c1 -25.7%, Cc1ccc(OCC(=O)Nc2cccc(C(=O)OCc3cc(=O)n4c(C)csc4n3)c2)cc1 -29.6%, Cc1ccccc1OCC(=O)OCc1cc(=O)n2nc(-c3cccs3)sc2n1 6.99%, Cn1c(C(=O)Nc2ccc(OC(F)(F)F)cc2)cc2c(=O)n3ccccc3nc21 -13.1%, COc1ccccc1CNC(=O)c1nnn(CC(=O)Nc2c(C)cccc2C)c1N -3.22%, CC(=O)c1ccc(N2CCN(c3ncnc4c3cnn4-c3cc(Cl)ccc3C)CC2)cc1 -43.8%, Cc1ccc(CNC(=O)CN2N=C(c3ccccc3)CCC2=O)cc1 -3.42%, Cc1cccc(CSc2nnc3[nH]c(=O)cc(-c4ccccc4)n23)c1 7.67%, COc1cc(-c2nc3ccc(Cl)cn3c2Nc2ccc3c(c2)OCCO3)ccc1O -9.32%, O=C(c1ccc2c(c1)N(Cc1ccc(Cl)cc1)C(=O)c1ccccc1S2(=O)=O)N1CCN(c2ccccn2)CC1 -36.7%, Cc1cc(NC(=O)C2CCCN(S(=O)(=O)c3cccc4nsnc34)C2)ccc1Br (stereo not drawn) 1.79%, O=C(Nc1cc(Cl)cc(Cl)c1)c1ccc(F)c(S(=O)(=O)N2CCN(c3ccccc3F)CC2)c1 -1.67%, CCOc1ccc(NC(=O)N2CCC(N3CCCCC3)CC2)cc1 4.57%
